The record followed here is ChEMBL document CHEMBL4888484, “Replenishing the malaria drug discovery pipeline: Screening and hit evaluation of the MMV Hit Generation Library 1 (HGL1) against asexual blood stage Plasmodium falciparum ,using a nano luciferase reporter read-out” (2022).

Structures are written as SMILES. Hit rate of the full screen: of about 150,000 compounds, about 540 (0.36%) showed an effect of 50% or more. The list shows a part of the results.

The test system of the assay is Plasmodium falciparum. The assay is described as follows: Primary screen in NF54 nanoGlo assay, in single point, at 2uM, 72h; a lower Z score goes with more inhibition. Type of assay: functional, Erythrocyte. Conditions: timepoint 72 hour.
As usually defined, the % Inhibition is the change of the read-out against control, counted positive when it falls. For `CCOc1ccccc1N(C)C(=O)[C@H]1CCn2ccnc2C1`, the “% Inhibition” value was -14% and the Z score worked out at 1.57.
`O=C(Cn1ncc2c1-c1ccoc1CC2)NCc1ccccc1Cl`: the “% Inhibition” value is reported as -6% and the Z score is 0.83.
In the same order, the values of `CCn1cc(N)c(=O)c(Br)c1` are -2% and 0.2.
Regarding `CC(C)c1noc(CN2C[C@@](C)(c3ccccc3)CCC2=O)n1`, the “% Inhibition” value is -21% and the Z score is 2.
In the same order, the values of `CCCCC(=O)NC1(C#N)CCC2(CC1)OCCO2` are -5% and 0.84.
As for `CCCn1ncc(C(=O)N(C)[C@@H](C)c2nccs2)c1C`, the “% Inhibition” value is on record as -9% and the Z score stood at 1.11.
For `C[C@]1(c2nc(-c3ccccc3-n3cccn3)no2)CCNC(=O)C1`, in that order: -2% and 0.36.
As to `COCc1cc(C(=O)NCc2nc3ccccc3s2)no1`, the “% Inhibition” value was determined as 3% and the Z score is -0.36.
In the same order, the values of `O=C(Nc1cccc2ncccc12)c1ccc2nsnc2c1` are 1% and -0.11.
On to `CCC(C)(C)NC(=O)Cc1ccc(Cl)cc1F`, for which the “% Inhibition” value is listed as -5% and the Z score amounted to 0.63.
As to `COc1cc(NC(=O)[C@@](C)(OC)C2CC2)ncc1Br`, the “% Inhibition” value is -3% and the Z score stood at 0.3.
In the same order, the values of `COc1c(CN2C(=O)c3ccccc3C2=O)cc(CN2C(=O)c3ccccc3C2=O)cc1CN1C(=O)c2ccccc2C1=O` are -15% and 2.77.
For `COc1ccc(CN2C(=O)COC[C@H]2C(=O)Nc2ccc(F)c(F)c2)cc1`, in that order: -14% and 1.66.
In the same order, the values of `Cc1cc(C(=O)N2CCOC[C@@H]2CC2CCC2)no1` are 1% and -0.08.
As to `Cc1ccc2nc(Cc3ccccc3)c(NC(=O)c3ccc(Cl)c(Cl)c3)n2c1`, the “% Inhibition” value is -4% and the Z score is 0.65.
For `CC(C)c1nccn1C1CN(C(=O)c2nccc3ccccc23)C1`, in that order: -11% and 1.39.
In the same order, the values of `Cc1c(C(=O)Nc2nccs2)cccc1-n1cnnc1` are 4% and -0.77.
For `CN1CCC(CNC(=O)C[C@H]2CCCCC2(C)C)CC1`, in that order: -17% and 2.26.
For `O=C1CN(Cc2nc(-c3ccc(F)cc3)no2)CCN1`, the “% Inhibition” value is listed as -9% and the Z score is reported as 1.44.
For `Cc1nn(C)cc1S(=O)(=O)N1CC[C@@H](C(F)(F)F)n2nc3nc(C(F)(F)F)cc(C)c3c21`, in that order: 5% and -0.6.
In the same order, the values of `CCc1nnc(CNC(=O)Cn2nc(C)n(Cc3ccccc3)c2=O)s1` are -7% and 1.29.
For `Cn1cncc1CN1CCC(N2C[C@H](COc3ccc(F)cc3)OCC2=O)CC1`, the “% Inhibition” value is recorded as -7% and the Z score came out at 0.93.
For `CN=C(NCCc1ccncc1C)N[C@@H](C)c1ccccc1OC`, in that order: 9% and -1.1.
For `Cc1c(NC(=O)c2nc(C(C)C)cs2)cccc1C(=O)N1CCc2sccc2C1`, in that order: -3% and 0.58.
For `Cc1ncsc1CN1CCC(N2CC3(CCCC3)[C@H]2c2ccccc2)CC1`, in that order: -7% and 1.11.
Take `Cc1ccc(NC(=O)c2ccc(-c3c(-c4ccc(F)cc4)ncn3C3CCCCC3)o2)c(Cl)c1`: the “% Inhibition” value was determined as 0% and the Z score stood at 0.01.
For `Cc1cc(C(=O)N2CCN(Cc3cc4n(n3)CCC4)[C@H](C)C2)n[nH]1`, in that order: 1% and -0.23.
For `CC(=O)N[C@@H]1C(=O)N(CCCOc2cccc(C)c2)c2c(C)cccc21`, in that order: -14% and 2.64.
In the same order, the values of `Cc1cc(CC(=O)NCc2nc(C)c3c(n2)CCCC3)on1` are -9% and 0.84.
For `CC(C)c1nsc(CN[C@H](c2cnn(C)c2)C2(CO)CCC2)n1`, the “% Inhibition” value is reported as -10% and the Z score is given as 1.12.
As to `CN(C[C@H]1CCN(c2ccccc2)C1)C(=O)CCn1ccc(=O)[nH]c1=O`, the “% Inhibition” value is 0% and the Z score was 0.
For `Cc1cccc2[nH]c([C@H]3CCCN(C(=O)C4CCOCC4)C3)nc12`, in that order: -12% and 2.22.
As to `O=S(=O)(NCC#CCN1CCc2ccccc2C1)c1ccc(Cl)s1`, the “% Inhibition” value is listed as -1% and the Z score is 0.06.
For `NC(=O)c1cccc(-c2ccc([C@@H](N)c3ccccc3)cc2)c1`, in that order: 3% and -0.62.
For `Cc1cc(C)cc(NC(=O)C2[C@@H]3C=C[C@]4(O3)C(C(=O)NC3CCCCC3)N(C3CCC(C)CC3)C(=O)[C@H]24)c1` (stereo partly drawn), in that order: -10% and 1.62.
In the same order, the values of `CC[C@H](NC(=O)c1[nH]nc(C)c1Cl)C1CC(O)C1` (stereo partly drawn) are -19% and 2.52.
As to `Cc1cc2c(Cc3ccccc3)n[nH]c(=O)c2c(=O)[nH]1`, the “% Inhibition” value was -10% and the Z score stood at 1.6.
Consider `CNC(=O)c1cccc(S(=O)(=O)N[C@H]2CCOC[C@@H]2OCC2CC2)c1`, for which the “% Inhibition” value was -6% and the Z score was 1.14.
Regarding `Cc1ccc([C@@]2(O)CN3CCCCCC3=[N+]2c2ccc3c(c2)OCO3)cc1`, the “% Inhibition” value was found to be 3% and the Z score is listed as -0.33.
As to `O=C(CCc1ccccn1)NC[C@@H](CO)Cc1ccncc1Cl`, the “% Inhibition” value is listed as -19% and the Z score is given as 2.01.
For `O=C(CCN1CCCCC1=O)N[C@@H]1CCc2ccccc21`, in that order: -24% and 2.14.
For `C[C@H](CO)N(C)Cc1csc(Cn2ncc3ccccc3c2=O)n1`, in that order: -8% and 1.06.
For `COc1cc(C)ccc1OC(=O)c1c[nH]nc1C1CC1`, in that order: 24% and -2.74.
Take `O=C(c1ccccn1)N1CC(S(=O)(=O)N2CCc3ccccc32)C1`: the “% Inhibition” value is -3% and the Z score is on record as 0.38.
For `c1ccc(OCc2nc3ccccc3n2CC2CCN(Cc3ccccn3)CC2)cc1`, in that order: 3% and -0.32.
In the same order, the values of `CCN(Cc1noc(C2CCC2)n1)c1cc([C@H]2CCOC2)ncn1` are -7% and 1.47.
For `CCc1cc(C#N)c(NC(=O)c2cc(C3CC3)n(C)n2)s1`, in that order: -8% and 1.12.
With `c1coc(C(CNC2COCc3ncccc32)N2CCCC2)c1` (stereo not drawn), the “% Inhibition” value is reported as 4% and the Z score was -0.78.
For `O=C(Nc1ccc2c(c1)OCO2)c1cccnc1O`, in that order: -6% and 0.58.
For `CCOC(=O)N1CCN(C(=O)Cc2cc(-c3ccc4c(c3)C[C@H](C)O4)on2)CC1`, in that order: -4% and 0.7.
For `O=C(C[C@@H]1CCNC[C@@H]1Cc1cc(CC2CCCCC2)on1)N1CCOCC1`, in that order: -5% and 0.71.
For `CC1Cc2ccccc2N1C(=O)CS(=O)(=O)CC1CCCO1` (stereo not drawn), the “% Inhibition” value is recorded as 0% and the Z score stood at 0.06.
`Cc1csc(NC(=O)c2ccnc(N(C)C)c2)n1`: the “% Inhibition” value is given as -9% and the Z score is 0.86.
Take `CCC1(O)CN(c2nc(C(C)(C)C)ns2)C1`: the “% Inhibition” value was found to be 10% and the Z score is -1.05.
